#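 A five-concentration, 48-hour dose response in 96-well plates underlies each endpoint, interpolated linearly between surrounding concentrations. The concentration for 50% growth inhibition is given as GI50. At the TGI there is no net growth.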
# System: NCI-H322M lung
# Assay: NCI-60 cell line screen, 48 h
Compound,GI50,TGI
Cc1noc2c(Cc3ccccc3)nn(CC(=O)N/N=C/c3ccc(Cl)cc3)c(=O)c12,6.07 µM,> 100 µM
C#C[C@]1(O)CC[C@H]2[C@@H]3CC=C4c5sc(Nc6ccc(C(F)(F)F)cn6)nc5CC[C@]4(C)[C@H]3CC[C@@]21C,7.19 µM,39.1 µM
N#Cc1ccc(C(=O)CSc2nc3c(c(Nc4ccc(S(N)(=O)=O)cc4)n2)CCC3)cc1,> 22.5 µM,> 22.5 µM
N#Cc1c(-c2ccc(Cl)cc2)nc2n[nH]c(-c3ccc(Cl)cc3)c2c1-c1ccc(C(F)(F)F)cc1,2.4 µM,13.2 µM
CC1=C(CCC=O)C2=C(C)C3(CC3)[C@@](C)(O)C(=O)C2=C1,0.182 µM,0.552 µM
N[C@@H](CSSC[C@H](N)C(=O)Nc1ccc(OCC2CCCC2)cc1)C(=O)Nc1ccc(OCC2CCCC2)cc1,0.191 µM,0.434 µM

# From PubChem BioAssay (NCI)
